PubChem BioAssay AID360 (National Center for Advancing Translational Sciences (NCATS), 2006)
Hit rate of the full screen: of about 48,000 compounds, about 550 (1.1%) were called active. Inconclusive results (about 4%) are left out. Cut-off read from the data, not from the text of the source: active = potency below about 15 µM; inconclusive = mostly about 16 µM to 33 µM; inactive = weaker than that. Some of the results follow.

Target: Lysosomal acid glucosylceramidase (Homo sapiens) (UniProt P04062)
Assay: Glucocerebrosidase;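 note: the screen sought inhibitors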
Conditions: purified enzyme, resorufin glucoside fluorescence (screen aimed at inhibitors), 20 min; series mostly up to 77 µM
How it was run: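 Normal human glucocerebrosidase (0.2 nM final) was assayed with resorufin β-D-glucopyranoside (30 uM final) in 50mM citric acid/KH2PO4, 10mM sodium taurocholate, 0.01% tween-20, pH 5.9. Compounds were titrated; fluorescence (Ex 548, Em 600) read after 20 min at RT.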
Potency is the fitted concentration of half-maximal effect.

UniProt P04062, sequence (P04062 whole entry, looked up): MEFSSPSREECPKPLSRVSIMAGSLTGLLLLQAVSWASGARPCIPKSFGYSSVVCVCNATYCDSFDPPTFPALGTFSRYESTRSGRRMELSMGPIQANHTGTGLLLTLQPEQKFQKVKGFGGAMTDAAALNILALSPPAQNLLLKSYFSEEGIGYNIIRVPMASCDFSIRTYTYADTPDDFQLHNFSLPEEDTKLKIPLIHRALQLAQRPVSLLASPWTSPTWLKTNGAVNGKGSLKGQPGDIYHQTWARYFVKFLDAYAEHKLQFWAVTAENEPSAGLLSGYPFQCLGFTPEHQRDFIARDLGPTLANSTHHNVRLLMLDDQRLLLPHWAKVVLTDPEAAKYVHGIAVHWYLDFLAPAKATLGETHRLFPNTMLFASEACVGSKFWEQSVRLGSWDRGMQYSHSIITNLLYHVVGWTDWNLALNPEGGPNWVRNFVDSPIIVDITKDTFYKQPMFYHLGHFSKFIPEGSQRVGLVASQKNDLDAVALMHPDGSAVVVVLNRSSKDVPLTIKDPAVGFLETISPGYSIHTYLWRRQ

Potency, inactive:
COc1ccc(-c2csc3nc(C)n(-n4cccc4)c(=O)c23)cc1 > 76.9 µM, CC1(C)OC(=O)C(=CNn2cnc3ccccc3c2=O)C(=O)O1 > 76.9 µM, O=C(Cc1c[nH]c2ccccc12)Nc1nccs1 > 76.9 µM, CCOC(=O)Cc1[nH]nc2c1C(c1ccoc1)C(C#N)=C(N)O2 (stereo not given) > 76.9 µM, COc1ccc(-n2ccnc2SCC(=O)NCc2ccc3c(c2)OCO3)cc1 > 76.9 µM, CCc1nnc(NC(=O)CSc2nnc(CSc3nc(C)cc(C)n3)n2C)s1 > 76.9 µM, O=C(Nc1ccccc1O)c1cc(S(=O)(=O)N2CCOCC2)ccc1Cl > 76.9 µM, Cc1cc(C)c(NC(=O)CS(=O)CC(=O)N2CCN(c3ccc(F)cc3)CC2)c(C)c1 (stereo not given) > 76.9 µM, COc1ccc(C)cc1NC(=O)NCCC1=CCCCC1 > 76.9 µM, CC1(C)SC2c3ccccc3C(=O)N2[C@@H]1C(=O)NCc1ccco1 (stereo not given in full) > 76.9 µM, CC(C)C(c1nnnn1Cc1cccs1)N1CCN(C2CCCC2)CC1 (stereo not given) > 76.9 µM, NC(=O)N1c2ccccc2CC(=O)c2ccccc21 > 76.9 µM, CC(C)[C@H](NC(=O)NC1CCCC1)C(=O)O > 76.9 µM, O=C(O)c1ccc2cc[nH]c2c1 > 76.9 µM, Cc1cc(NC(=O)Cn2nc(C(F)(F)F)c3c2CCC3)no1 > 76.9 µM, O=C(CCn1c(=O)[nH]c2ccccc2c1=O)Nc1ccccc1 > 76.9 µM, O=C(COCc1nc2ccccc2c(=O)[nH]1)NC1CCCC1 > 76.9 µM, COc1ccc(NC(=O)CC2C(=O)N(c3ccc(OC)cc3)C(=O)N2CCN2CCN(C)CC2)cc1 (stereo not given) > 76.9 µM, O=C(Nc1cccc2ncccc12)c1cccnc1 > 76.9 µM, O=c1n(-c2ccccc2)c(=O)n2n1CCC2 > 76.9 µM, Cc1cccc(-c2cc3nc(C)cc(NCCCN(C)C)n3n2)c1 > 76.9 µM, Cc1ccc(C2CC(=O)c3cnc(NC(=O)c4ccco4)nc3C2)cc1 (stereo not given) > 76.9 µM, O=C(CSc1nnc2sc3ccccc3n12)NCc1ccco1 > 76.9 µM, CCOC(=O)N1CCN(c2ncnc3c2cnn3-c2ccc(Cl)cc2)CC1 > 76.9 µM, CN(C)CCOC(=O)C1(c2ccccc2)CCOCC1 > 76.9 µM, Cc1cccc(C)c1NC(=O)N1CCC(N2CCCCC2)CC1 > 76.9 µM, O=S(=O)(c1cccs1)N1CCc2ccccc21 > 76.9 µM, COc1cccc(C2C(C#N)=C(N)OC3=C2C(=O)CCC3)c1OC(=O)c1ccco1 (stereo not given) > 76.9 µM, Cc1cccc2cc(CN(Cc3ccc(F)cc3)Cc3nnnn3C3CCCC3)c(=O)[nH]c12 > 76.9 µM, CCCCN(CCCNC(=O)C1CCCN(S(=O)(=O)CC)C1)Cc1ccccc1 (stereo not given) > 76.9 µM, CCN(CC)Cc1c(C(=O)OC)nnn1-c1nonc1N > 76.9 µM, CN=C(Nc1cc(C)nn1-c1ccccc1)c1ccc(F)cc1 > 76.9 µM, COc1cc2ccccc2cc1C(=O)OCC(=O)N1CCOCC1 > 76.9 µM, CCN(CC)CCCN1C(=O)C(O)=C(C(=O)c2ccco2)C1c1ccc(C)o1 (stereo not given) > 76.9 µM, O=C(NC1=NCCS1)C12CC3CC(C1)CC(C(=O)NC1=NCCS1)(C3)C2 > 76.9 µM, c1ccc(-n2cnc3cc(NCc4ccncc4)ccc32)cc1 > 76.9 µM, CCN(CC)CCCNC(=O)c1cc(-c2ccc(Cl)c(Cl)c2)on1 > 76.9 µM, CCOC(=O)Cn1c(=O)c2c(nc3n2CCCCN3c2ccc(OCC)cc2)n(C)c1=O > 76.9 µM, O=C(NCc1ccco1)c1cc2sccc2n1Cc1ccccc1 > 76.9 µM, CCOC(=O)CC(N)c1ccc(OC)cc1 (stereo not given) > 76.9 µM, COc1ccc(COC(=O)c2ccc(N3CCCC3=O)cc2)cc1F > 76.9 µM, Cn1cnnc1SCCn1c(N2CCCCC2)nc2c1c(=O)[nH]c(=O)n2C > 76.9 µM, CCNC(=O)CSc1nc2ccccc2c(=O)n1CCCOC(C)C > 76.9 µM, COc1cccc(-c2nnc(SCc3nc4ccccc4[nH]3)n2N)c1 > 76.9 µM, CCOC(=O)c1c(NC(C)=O)sc2c1CCCNC2=O > 76.9 µM, O=C(CN1C(=O)COc2ccccc21)c1ccc(Cl)cc1 > 76.9 µM, C=CCn1c(N)c(C(=O)OC(C)CC)c2nc3ccccc3nc21 (stereo not given) > 76.9 µM, CCCn1c(SCC(=O)OCc2ccccc2)nc2c1c(=O)n(C)c(=O)n2C > 76.9 µM, COc1ccc(OC)c(NC(=O)C2CCCCC2C(=O)O)c1 (stereo not given) > 76.9 µM, COn1c(SCC(N)=O)nc2ccccc2c1=O > 76.9 µM, Clc1c(-c2nnc3n2CCCCC3)sc2ccccc12 > 76.9 µM, CCOc1ccc2[nH]cc(C(=O)O)c(=O)c2c1 > 76.9 µM, COc1ccc(OC)c(CNC(=O)C2CCN(S(=O)(=O)N3CCCC3)CC2)c1 > 76.9 µM, CCCCCCn1c(CN2CCCCC2)nc2c1c(=O)n(C)c(=O)n2C > 76.9 µM, CCOC(=O)C1=C(c2ccccc2)N2CCN=C2S1 > 76.9 µM, COc1ccc(F)c(C2C(C#N)=C(N)Oc3n[nH]c(C(C)(C)C)c32)c1 (stereo not given) > 76.9 µM, Cc1ccccc1OCC1CN(CN2CCOCC2)C(=O)O1 (stereo not given) > 76.9 µM, CC(C)n1c(N2CCN(C(=O)c3cccs3)CC2)nc2ccccc21 > 76.9 µM, CCOC(=O)c1oc2cccc(OC(C)=O)c2c1C > 76.9 µM, COc1cccc(-n2c(SCC(=O)NC(C)(C)C)nnc2-c2ccoc2C)c1 > 76.9 µM
